Test results taken from publication PMC4336329 (PLoS ONE, 2015).
Among all 310,000 compounds or so, about 2,200 (0.71%) showed an effect of 50% or more. Effects have a minus sign here. Some of the results follow.

biological target: human ether-à-go-go-related gene (hERG) potassium channel (human, UniProt Q12809); assay: primary screen, population patch clamp on CHO cells stably expressing hERG
Sequence (Q12809 whole entry, looked up): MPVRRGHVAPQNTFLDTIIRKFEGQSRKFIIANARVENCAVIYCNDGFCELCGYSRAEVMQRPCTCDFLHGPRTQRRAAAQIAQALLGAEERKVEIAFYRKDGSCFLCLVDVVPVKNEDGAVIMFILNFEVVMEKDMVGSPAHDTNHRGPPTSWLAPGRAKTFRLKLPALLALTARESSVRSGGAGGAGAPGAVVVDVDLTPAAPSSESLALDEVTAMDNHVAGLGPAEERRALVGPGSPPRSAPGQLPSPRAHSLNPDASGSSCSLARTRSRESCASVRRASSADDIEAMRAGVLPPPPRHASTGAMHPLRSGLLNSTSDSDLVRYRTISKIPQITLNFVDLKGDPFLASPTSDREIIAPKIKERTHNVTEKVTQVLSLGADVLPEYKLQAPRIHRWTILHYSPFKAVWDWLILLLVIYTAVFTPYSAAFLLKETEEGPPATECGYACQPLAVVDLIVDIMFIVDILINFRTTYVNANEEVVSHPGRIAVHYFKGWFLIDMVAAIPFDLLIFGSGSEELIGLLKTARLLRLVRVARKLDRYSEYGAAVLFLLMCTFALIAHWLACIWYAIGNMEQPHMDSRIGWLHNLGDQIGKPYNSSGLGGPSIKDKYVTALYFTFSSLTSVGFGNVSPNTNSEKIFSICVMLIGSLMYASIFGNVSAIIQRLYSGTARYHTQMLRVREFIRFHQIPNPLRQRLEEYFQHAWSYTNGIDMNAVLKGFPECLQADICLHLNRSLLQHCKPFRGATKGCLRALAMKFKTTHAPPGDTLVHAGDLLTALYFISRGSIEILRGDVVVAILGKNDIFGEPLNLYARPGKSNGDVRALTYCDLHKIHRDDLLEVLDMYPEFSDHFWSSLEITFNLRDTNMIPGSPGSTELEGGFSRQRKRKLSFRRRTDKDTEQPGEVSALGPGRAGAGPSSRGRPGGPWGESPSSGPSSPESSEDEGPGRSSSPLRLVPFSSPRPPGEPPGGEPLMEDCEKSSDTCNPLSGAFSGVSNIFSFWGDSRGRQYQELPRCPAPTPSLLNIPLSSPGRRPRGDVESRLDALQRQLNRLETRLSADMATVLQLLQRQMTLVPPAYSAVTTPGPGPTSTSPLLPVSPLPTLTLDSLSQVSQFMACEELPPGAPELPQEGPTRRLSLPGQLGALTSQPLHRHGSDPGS

| SMILES | hERG current change (%, negative = inhibition) at 1uM [%] |
| --- | --- |
| O=C(O)COc1c(Cl)cc(/C=C2/NC(=O)NC2=O)cc1Br | 9.64 |
| CCn1cc(S(=O)(=O)N2CCN(Cc3ccc(F)cc3)CC2)cn1 | 10.6 |
| N#C/C(=N\Nc1ccc(F)cc1)C(=N)N1CCCCC1 | -3.77 |
| CC(C)(C)C(=O)O/N=C(\N)COc1cccc(Cl)c1 | 15.3 |
| O=C(COC(=O)c1ccccc1Br)NCCc1ccc(F)cc1 | 7.64 |
| C/C(=N/NC(=O)c1ccoc1C)c1ccc(NC(=O)C2CCCC2)cc1 | 13.5 |
| Cc1ccnc(N=Cc2nc(-c3ccccc3Br)oc2O)c1 | 6.12 |
| CCOC(=O)c1c(C)n(-c2ccc(C)cc2)c2ccc(OCC(O)CNCC3CCCO3)cc12.O=C(O)C(=O)O (centres unmarked) | -0.393 |
| Cc1ccc(S(=O)(=O)NC(CC(C)C)C(=O)N2CCN(C/C=C/c3ccccc3)CC2)cc1 (centres unmarked) | 12.4 |
| COc1ccccc1OCC(=O)NCCNC(=O)COc1ccccc1OC | 7.38 |
| N#CCC(CNc1ncc(C(F)(F)F)cc1Cl)OC(=O)c1c(F)cccc1F (centres unmarked) | 11.6 |
| Cc1cccc(CNc2ccc(C(CC(N)=O)NC(=O)c3ccccc3)cc2[N+](=O)[O-])c1 (centres unmarked) | 5.97 |
| Cc1ccc(NC(=O)CCC(=O)NNS(=O)(=O)c2ccccc2)c(C)c1 | 12.3 |
| CCc1ccc2[nH]c(=O)c(C3C(C#N)=C(N)Oc4c3ccc3cccnc43)cc2c1 (centres unmarked) | 3.55 |
| CC(=O)c1ccc(NC(=S)N(C)C2CCN(C)CC2)cc1 | 2.29 |
| CCN(CC)Cc1cc2ccccc2c2c1COC2 | -21.5 |
| O=C1NC(=O)C(CCc2ccccn2)(Cc2ccc3c(c2)OCO3)C(=O)N1CCc1ccccc1 (centres unmarked) | 6.21 |
| CCNC1CCS(=O)(=O)C1 (centres unmarked) | 13.2 |
| Cc1ccc(NC(=O)c2ccc(Cl)cc2Cl)cc1O | 5.61 |
| CCCC(=O)Nc1ccc2c(c1)nc1n2CCN(CCOC)C1 | 10.5 |
| COc1ccc(/C=N/NC(=O)c2ccc(=O)[nH]n2)cc1OC | 13 |
| CNC(=O)CSc1cnc2ccccc2n1 | 2.19 |
| CC(=O)N1CCN(S(=O)(=O)c2cccc(C(=O)NC3CCCC3)c2)CC1 | 6.03 |

| SMILES | hERG current change (%, negative = inhibition) at 1uM [%] |
| --- | --- |
| CC1=CC2/C=C(\C)CCC(O)C(O)/C=C/C(=O)C23C(=O)NC(CC(C)C)C3C1C (centres unmarked) | 12.7 |
| CC1CCN(C(=O)CCS(=O)(=O)c2cc3c(cc2Cl)NC(=O)CO3)CC1 | -16.3 |
| Cc1ccc(C)c(COC(=O)c2cc([N+](=O)[O-])ccc2N2CCOCC2)c1 | 9.39 |
| CCCNC(=O)CSCc1nc(-c2ccc(SC)cc2)oc1C | 12.9 |
| CCCN[C@@H]1C(=O)N2C(C(=O)OCCC)=C(C)CS[C@H]12 | 7.14 |
| COc1ccc(OCCn2cc(/C=C(\C#N)C(=O)NCc3ccco3)c3ccccc32)cc1 | 15.5 |
| Cc1ccc(C)c(NC(=O)COC(=O)CCc2ccc(S(=O)(=O)N3CCOCC3)cc2)c1 | 6.79 |
| COCCCn1c(=O)c2ccccc2c2ccccc2c1=O | 6.29 |
| Cc1ccc(S(=O)(=O)N2CCCCCC2)cc1[N+](=O)[O-] | 8.47 |
| Cc1ccc(OCC(=O)NC(=S)Nc2ccc(Br)c(C)n2)cc1 | 5.89 |
| CCOC(=O)C1C(c2ccc(O)cc2)NC(=O)NC1(O)C(F)(F)F (centres unmarked) | 6.45 |
| Cc1cc(C)n2nc(CNS(=O)(=O)c3ccc(F)cc3)nc2n1 | 14 |
| O=C(O)c1ccc(/C=N/NC(=O)C2CC2(c2ccccc2)c2ccccc2)cc1 (centres unmarked) | 15.3 |
| CC(C)C(c1nnnn1C1CCCC1)N1CCc2ccccc21 (centres unmarked) | 7.72 |
| COc1ccc(C(NC(=O)c2ccco2)c2ccc(OC)c(OC)c2)cc1 (centres unmarked) | 11.1 |
| Cn1c(O)c(/C=C2\C=c3ccccc3=NC2=O)c(=O)n(C)c1=O | 10.3 |
| COc1cccc2[nH]c3c(N4CCC(C)CC4)ncnc3c12 | -2.29 |
| C=CCn1c(SCC(=O)c2ccc(Cl)s2)nc2ccccc2c1=O | 12.7 |
| CC1Cc2ccccc2N1C(=O)COC(=O)c1cccc(Br)c1 (centres unmarked) | 12.6 |
| CC(C)(C)c1ccccc1OCC(=O)NCCC(=O)O | 4.06 |
| Cc1ccc(NC(=S)NN2CCN(C)CC2)cc1 | 8.77 |
| CN(C)CCCC1(O)c2ccccc2CCc2ccccc21 | 8.53 |
| O=C(CN(CC1CCCO1)C(=O)CNS(=O)(=O)c1ccc(Cl)cc1)NCC1CCCO1 (centres unmarked) | 12.5 |

| SMILES | hERG current change (%, negative = inhibition) at 1uM [%] |
| --- | --- |
| CC(=O)N1CCN(Cc2nc3cc(NC(=O)c4ccc(F)cc4)ccc3n2C)CC1 | 4.31 |
| CN(C)S(=O)(=O)c1ccc(C(=O)Nc2nc(-c3ccccc3)c(C(=O)c3ccccc3)s2)cc1 | 7.28 |
| COc1ccc(CCNC(=O)C(=O)N2CCCCC2)cc1OC | 14.3 |
| CCn1c(SCC(=O)Nc2ccc(-c3nc4ccc(C)cc4s3)cc2)nnc1-c1ccccc1 | 8.51 |
| Cc1cccc(CNCc2ccccc2)c1.Cl | -0.918 |
| C(=N\Nc1nc(-c2cccnc2)nc2ccccc12)/c1ccccc1 | 15.3 |
| CC(=O)c1cccc(S(=O)(=O)NCC(c2ccco2)N2CCCCC2)c1 (centres unmarked) | -0.501 |
| COc1ccc(CC(=O)Nc2ccc(-c3noc(COc4ccccc4C)n3)cc2)cc1 | 7.17 |
| COc1ccccc1NC(=O)COC(=O)c1cnc(C)cn1 | 14.8 |
| Cc1cc(C)cc(-c2nnc(SCC(=O)NCc3cccs3)o2)c1 | 10.2 |
| Cc1ccc(C)c(Cn2c3ccccc3c3cnn(CC(=O)NCCCN4CCCCC4)c(=O)c32)c1 | -44.3 |
| CCOc1cc(C(=O)OC(C)C(=O)Nc2ncc(Cl)cc2Cl)ccc1OCC(=O)N1CCOCC1 (centres unmarked) | 8.54 |
| O=C(CSc1ccc(-c2cccnc2)nn1)Nc1ccc(Br)cc1 | -3.94 |
| FCCN(CCF)c1cccc(Cl)c1 | 11.2 |
| Cn1cc(Br)c(C(=O)N2CCc3ccccc32)n1 | 2.4 |
| CC(C)=NNc1nc(-c2ccccc2)c(C)s1 | 9.91 |
| CC1CCN(C(=O)c2[nH]cnc2C(=O)NCC(=O)OC(C)(C)C)CC1 | 12.5 |
| C=CCN1C(=O)CN=C1Nc1ccc(F)cc1 | 8.84 |
| CC1=NN(C(=O)COc2ccccc2)C(O)(c2cccnc2)C1 (centres unmarked) | 13.6 |
| CCCn1c(N)c(C(=O)CN2CCN(S(=O)(=O)c3cccs3)CC2)c(=O)[nH]c1=O | 6.26 |
| Cc1ccc(CN2CCN(Cc3ccc(O)cc3)CC2CCO)o1 (centres unmarked) | 3.81 |
| CCSc1nnc(NC(=O)c2cccc(S(=O)(=O)N(C)c3ccccc3)c2)s1 | 1.55 |
| Cc1ccc(CCNC(=O)CCS(=O)(=O)c2ccc3c(c2)oc(=O)n3C)cc1 | 2 |

| SMILES | hERG current change (%, negative = inhibition) at 1uM [%] |
| --- | --- |
| COc1ccc(N2CC(C(=O)Nc3nc4ccccc4s3)CC2=O)cc1 (centres unmarked) | 7.18 |
| COc1ccc(Cl)cc1NC(=O)C/C(C)=N/NC(=O)CCc1ccccc1 | 4.46 |
| CC(C)(C)c1ccc(OCCC(=O)NNC(=O)c2ccncc2)cc1 | -0.888 |
| Cc1nnc(NC(=O)c2ccc(-c3ccc(Cl)cc3)o2)s1 | 6.31 |
| CC1CCCC(C)N1C(=O)CSc1nnc(-c2c[nH]c3ccccc23)o1 (centres unmarked) | 2.01 |
| O=C1CCC(C(=O)N2CCOCC2)CN1Cc1ccc(Cl)cc1 (centres unmarked) | 8.34 |
| COc1cc(C(=O)OCC(=O)NC2CCCCC2)cc2c1OCCO2 | 9.84 |
| CCC(OC(=O)CN1C(=O)C(=O)c2ccccc21)C(=O)Nc1ccc(S(N)(=O)=O)cc1 (centres unmarked) | 9.97 |
| COc1ccc(/C=N/NC(=O)CCn2nc(C)cc2C)cc1O | 9.84 |
| O=[N+]([O-])c1ccccc1CNC1CCCc2ccccc21 (centres unmarked) | 7.9 |
| COc1ccc(C2CC(c3ccccc3)=NN2C(=O)COC(=O)c2cc(S(=O)(=O)N3CCOCC3)ccc2F)cc1 (centres unmarked) | 3.93 |
| Cc1nn(-c2ccccc2)c(C)c1/C=N/NC(=O)CSc1nc2ccccc2c(=O)n1-c1ccc(Br)cc1 | 9.52 |
| O=C1NCCN2CCCC12 (centres unmarked) | 12 |
| Cc1cc(C(=O)NC(=S)Nc2cccc(NC(=O)C(C)C)c2)ccc1[N+](=O)[O-] | 8.15 |
| O=C1CC(c2ccccc2)CC(O)=C1C=Nc1ccc(Cl)cc1 (centres unmarked) | 12.8 |
| Cc1cc(C)cc(-n2nnnc2SCC(=O)N2CCOCC2)c1 | 6.82 |
| O=S(=O)(c1ccccc1)c1nc(-c2ccccc2)oc1N1CCCCC1 | -4.72 |
| COc1ccc2[nH]c(C(=O)O)c(CCNC(C)=O)c2c1 | 10.4 |
| CN(Cc1ccco1)c1ncnc2ccc(-c3ccc4c(ccn4C)c3)cc12 | 11 |
| Cc1cccc(C2NC(=O)c3c(sc(C)c3C)N2)c1O (centres unmarked) | 13.4 |
